Laboratory results as given in PubChem BioAssay AID1631 (National Center for Advancing Translational Sciences (NCATS), 2009).
The whole screen tested about 260,000 compounds, of which about 890 (0.34%) were called active. Inconclusive means that the source gave no clear call. Such entries were picked first, then a sample of the others. Calls follow the shape of the dose curve; as a rule, active = well fitted activation curve with a large enough effect; inconclusive = small, poorly fitted or top-dose-only effect; inactive = no such curve, though single readings can be large or run the other way. No potency is given beside an inconclusive call; the fits are too rough.

What follows are molecules tested against Pyruvate kinase PKM (Homo sapiens) (UniProt P14618) (assay: qHTS Assay for Activators of Human Muscle isoform 2 Pyruvate Kinase). Conditions: purified PKM2, Kinase-Glo ATP luminescence; Potency: activation; activation: at 57.5 µM (top of the series), 0% is enzyme alone, no compound.
Sequence of UniProt P14618 (P14618 whole entry, looked up, canonical isoform): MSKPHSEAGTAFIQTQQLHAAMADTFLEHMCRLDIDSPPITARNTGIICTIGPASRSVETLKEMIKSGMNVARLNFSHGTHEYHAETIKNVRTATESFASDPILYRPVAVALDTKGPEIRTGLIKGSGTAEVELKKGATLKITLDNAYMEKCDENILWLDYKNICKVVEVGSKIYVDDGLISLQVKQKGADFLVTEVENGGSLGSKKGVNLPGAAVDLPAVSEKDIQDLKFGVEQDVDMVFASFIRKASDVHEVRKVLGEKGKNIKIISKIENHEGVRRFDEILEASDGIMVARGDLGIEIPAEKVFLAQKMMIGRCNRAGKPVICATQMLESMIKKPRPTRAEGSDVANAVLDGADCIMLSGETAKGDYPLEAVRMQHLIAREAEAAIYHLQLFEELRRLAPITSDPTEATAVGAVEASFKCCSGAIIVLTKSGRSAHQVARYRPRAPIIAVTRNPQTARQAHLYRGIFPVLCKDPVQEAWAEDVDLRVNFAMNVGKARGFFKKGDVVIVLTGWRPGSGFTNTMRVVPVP
How it was run: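 Purified hPK-M2 (>95%) run at intermediate activity with 0.1 mM ADP and 0.5 mM PEP in 50 mM imidazole pH 7.2, KCl, MgCl2; 1 h room temperature. ATP formed read by Kinase-Glo luminescence; normalized to uninhibited and no-enzyme controls.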
% is scaled to controls: 0 for no effect and ±100 for the full control effect; potency is read from the fitted curve at half-maximal effect; tags tell the direction and shape of the fitted curve.
Also: nearly all actives have a fitted effect of over 55% in size.

SMILES	Potency	activation
Cc1ccccc1-c1noc(-c2ccccc2C(=O)NCc2ccco2)n1	inconclusive [rising, partial curve]	–
Oc1ccc(-c2nc3ccc4ccccc4c3c3c2CCC3)cc1O	inconclusive [rising, partial curve, poor fit]	–
O=C1C=CC(=O)N1c1ccc(Sc2ccc([N+](=O)[O-])cc2)cc1	active: 31.6 µM	–
Cc1ccc(CNC(=O)Cn2c(=O)oc3ccccc32)o1	inconclusive [rising, single point]	–
CC(C)NS(=O)(=O)c1ccc(OCC(=O)NC2CCCCCC2)cc1	–	inactive: 0.476%
Cc1c(C(=O)N/N=C/c2ccc(N(C)C)cc2)[nH]c2ccc(Cl)cc12	–	inactive: 0.654%
CCN(CC)C(=O)CCc1nnc(Cc2cccc(C(F)(F)F)c2)o1	–	inactive: 1.07%
CC(C)C(C)NC(=O)COc1ccc(S(=O)(=O)N2CCOCC2)cc1Cl (stereo not given)	inconclusive [rising, single point]	–
Cc1cc(C(=O)CN2C(=O)C(=O)N(Cc3ccccc3)C2=O)c(C)n1CC1COc2ccccc2O1 (stereo not given)	inconclusive [rising, single point]	–
Cc1ccc(-c2cc(C(=O)Nc3ccccc3C)c3ccccc3n2)o1	inconclusive [rising, partial curve]	–
Clc1ccc(-c2nnc(SCc3nc4ccccc4[nH]3)o2)c(Cl)c1	inconclusive [rising, partial curve, poor fit]	–
CC(=O)OC1C2CCC1C([N+]1(C)CCCCC1)CC2 (stereo not given)	–	inactive: 0.113%
Cc1ccccc1CN1[C@@H](CC2CCCCC2)COCCS1(=O)=O	–	inactive: -0.632%
O=[N+]([O-])c1ccc(NS(=O)(=O)c2cccc3cccnc23)cc1	inconclusive [rising, partial curve]	–
CCc1nnc(NC(=O)CSc2ccc(-c3cccs3)nn2)s1	inconclusive [rising, partial curve, poor fit]	–
CS(=O)(=O)c1ncc(Cl)c(C(=O)Nc2ccc3ccccc3c2)n1	inconclusive [rising, single point]	–
FC(F)(F)c1cnc(N2CCCN(C(=S)Nc3ccccc3)CC2)c(Cl)c1	inconclusive [rising, single point]	–
COc1ccc(S(=O)(=O)Nc2ccc3c(c2)n(C)c(=O)n3C)cc1	inconclusive [rising, partial curve]	–
Cc1ccc(-c2cc(-c3ccccc3)c(C#N)c(N)n2)o1	inconclusive [rising, full curve]	–
Cc1nn(CC(=O)N/N=C/c2ccc3c(c2)OCO3)c(C)c1Br	inconclusive [rising, single point]	–
